Laboratory results from ChEMBL document CHEMBL1201862, “PubChem BioAssay data set” (2004).
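Briefly, cells in 96-well plates were exposed to five compound concentrations for 48 h, and endpoints were estimated by linear interpolation. GI50 marks 50% less growth.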 The source made the active and inactive calls. No stated cut-off is given here; in the data, active = GI50 up to about 1.1 µM and inactive = higher.

These molecules were tested on NCI-H322M (assay: growth of human tumour cells (NCI), 48 h).

Q: For `CSC1(SC2=NCCN2)SC2(NCCN2)S1`, which GI50 is on record?
A: The GI50 was inactive: 18.3 µM.

Q: With `NCCNc1ncnc2ccc(Cl)cc12` as the molecule, how does the GI50 read?
A: The GI50 was inactive: 96.2 µM.

Q: Which GI50 does the source give for `CCCS(=O)(=O)O` here?
A: The GI50 was inactive: > 100 µM.

Q: How did the GI50 turn out when `CC1OC(OC2C(O)COC(OC3C(C)OC(OC4C(OC(=O)[C@]56CCC(C)(C)C[C@@H]5C5=CCC7[C@@]8(C)C[C@H](O)[C@H](OC9OC(CO)C(O)C(OC%10OC(CO)C(O)C(O)C%10O)C9O)[C@@](C)(CO)[C@@H]8CC[C@@]7(C)[C@]5(C)CC6)OCC(O)C4O)C(O)C3O)C2O)C(O)C(O)C1O` (some centres undefined) was run?
A: Its GI50 is inactive: 16.4 µM.

Q: How did the GI50 turn out when `N#Cc1nc(-c2cccnc2)oc1N` was run?
A: Its GI50 is inactive: > 100 µM.

Q: `Cc1c(C(=O)C/C(=N/NC(=O)C[n+]2ccccc2)C(=O)Nc2ccccc2)[n+]([O-])c2ccccc2[n+]1[O-]` was tested. Which GI50 did it give?
A: Its GI50 is inactive: > 100 µM.

Q: Which GI50 does the source give for `CC1=NN(c2ccccc2)C(=O)C1/N=N/c1ccc(Br)cc1C` (centres undefined) here?
A: The GI50 was inactive: > 100 µM.

Q: With `CCCCCCCCCCCCCCCC(=O)OC1C(O)C(O)C(O)C(O)C12CO2` (centres undefined) as the molecule, how does the GI50 read?
A: Its GI50 is inactive: > 100 µM.

Q: `c1ccc(C2=NN3CN(N2)c2ccccc2OCCCOc2ccccc23)cc1` was tested. Which GI50 did it give?
A: The GI50 was inactive: > 100 µM.

Q: `O=C(NCc1cccnc1)C(=O)NCc1cccnc1` was tested. Which GI50 did it give?
A: Its GI50 is inactive: > 100 µM.

Q: Which GI50 does the source give for `CN1c2c(O)nc(N)nc2NCC1CCNc1ccc(C(=O)NC(CCC(=O)O)C(=O)O)cc1` (centres undefined) here?
A: Its GI50 is inactive: 1580 µM.

Q: With `COc1ccc(-c2cc(-c3cc(F)c(Cl)cc3Cl)on2)cc1OC` as the molecule, how does the GI50 read?
A: Its GI50 is inactive: > 100 µM.

Q: `O=C(/C=C(\O)C(=O)O)/C=C(\O)c1ccc(Cl)cc1` was tested. Which GI50 did it give?
A: Its GI50 is inactive: > 100 µM.

Q: How did the GI50 turn out when `OCC1OC(n2cnc3c(/C=C(/O)c4ccccc4)ncnc32)C(O)C1O` (centres undefined) was run?
A: The GI50 was inactive: 6.38 µM.

Q: Which GI50 does the source give for `COc1ccc2[nH]c3c4c(c5cc(C(C)(C)C)ccc5c3c2c1)C(=O)N(c1ccccc1)C4=O` here?
A: The GI50 was inactive: > 100 µM.

Q: For `COc1ccc(C(Nc2ccccn2)c2cc(C(C)(C)C)cc(C(C)(C)C)c2O)cc1` (centres undefined), which GI50 is on record?
A: The GI50 was inactive: 34 µM.

Q: `OC1[C@H](O)CN(OCc2ccccc2)C[C@@H]1O` (some centres undefined) was tested. Which GI50 did it give?
A: Its GI50 is inactive: > 100 µM.

Q: How did the GI50 turn out when `c1csc(-c2cc(-c3cccs3)c(-c3cccs3)s2)c1` was run?
A: The GI50 was inactive: > 100 µM.

Q: `O=C(O)c1cc(S(=O)(=O)N/N=C\c2c3ccccc3[n+]([O-])c3ccccc23)ccc1O` was tested. Which GI50 did it give?
A: Its GI50 is inactive: 13.6 µM.

Q: `CC(=O)Nc1ccc(CNc2cc(=O)[nH]c(=O)[nH]2)cc1` was tested. Which GI50 did it give?
A: Its GI50 is inactive: > 100 µM.

Q: Which GI50 does the source give for `CCn1c(=O)c2c3cc(O)ccc3oc2c2ccc(O)cc21` here?
A: Its GI50 is inactive: 32.1 µM.

Q: With `CCOC(=O)c1c(N2CCOCC2)ncn(-c2cccc(Cl)c2)c1=O` as the molecule, how does the GI50 read?
A: Its GI50 is inactive: > 100 µM.

Q: For `O=C1Nc2ccccc2/C1=C/c1c(Cl)[nH]c2ccc(O)cc12`, which GI50 is on record?
A: The GI50 was inactive: 5.2 µM.

Q: `Cc1cc2c(cc1C)[n+]([O-])c(C(=O)CC(=O)C(=O)Nc1ccccc1C(C)C)c(C)[n+]2[O-]` was tested. Which GI50 did it give?
A: Its GI50 is inactive: > 100 µM.

Q: How did the GI50 turn out when `CC(=O)NNc1nc(C)c(C(/C=C/c2ccc(/C=C/C(=N\NC(=O)c3ccncc3)c3sc(NNC(C)=O)nc3C)cc2)=N/NC(=O)c2ccncc2)s1` was run?
A: The GI50 was inactive: > 100 µM.

Q: `C/C(=N\NC(=S)Nc1ccc([N+](=O)[O-])cc1)c1nc2cccnc2[nH]1` was tested. Which GI50 did it give?
A: The GI50 was active: 0.605 µM.

Q: How did the GI50 turn out when `COc1cc([C@H]2c3cc(O)c(OC)cc3C[C@]3(O)[C@@H]2CO[C@@H]3O)ccc1O` was run?
A: Its GI50 is inactive: > 100 µM.

Q: `CCCN1C(=O)CCC2=C1CCc1c2ccc(Cl)c1Cl` was tested. Which GI50 did it give?
A: Its GI50 is inactive: 31.7 µM.

Q: Which GI50 does the source give for `COc1ccc(CCN2CCN(CCc3ccc(OC)cc3)CC2)cc1` here?
A: Its GI50 is inactive: > 100 µM.

Q: For `N#Cc1c(N)oc(-c2ccc([N+](=O)[O-])cc2)c1C#N`, which GI50 is on record?
A: Its GI50 is inactive: 24.7 µM.

Q: `CCCCCc1cc2cc3c(c(O)c2c(=O)[nH]1)C1(CCC3)C(=O)c2c(O)ccc(O)c2C1=O` was tested. Which GI50 did it give?
A: Its GI50 is inactive: > 100 µM.

Q: With `NS(=O)(=O)c1ccc(/N=N/c2nc3[nH]cnc(=S)c3[nH]2)cc1` as the molecule, how does the GI50 read?
A: Its GI50 is inactive: 4.92 µM.

Q: `CCOC(=O)C1=C(C)N(c2ccccc2)C2=C(C(=O)N(c3ccccc3)C2c2ccccc2)C1c1ccccc1` (centres undefined) was tested. Which GI50 did it give?
A: The GI50 was inactive: > 100 µM.

Q: Which GI50 does the source give for `CN(C)Cc1cc(/N=N/c2ccc(Cl)c(Cl)c2)ccc1O` here?
A: The GI50 was inactive: 11.7 µM.

Q: `O=C1CC(NCc2ccccc2)c2c(Cl)sc(Cl)c21` (centres undefined) was tested. Which GI50 did it give?
A: Its GI50 is inactive: 52.4 µM.

Q: For `CC(C)OC(=O)NCCn1cc(-c2ccccc2)nn1`, which GI50 is on record?
A: The GI50 was inactive: > 100 µM.

Q: For `Cc1ccc(NC(=O)C(=O)C(C(=O)c2ccc3ccccc3c2)C2OC(=O)c3ccccc32)cc1C` (centres undefined), which GI50 is on record?
A: The GI50 was inactive: 11.4 µM.

Q: Which GI50 does the source give for `COc1cccc([C@@H]2C/C(=N\NC(=O)C(=O)N[C@@H](C)c3ccccc3)c3cc4c(cc3N2)OCO4)c1` here?
A: Its GI50 is inactive: 58.6 µM.

Q: Which GI50 does the source give for `COc1cc([C@@H]2c3cc4c(cc3[C@@H](NCc3ccccc3F)C3COC(=O)[C@@H]32)OCO4)cc(OC)c1O` (some centres undefined) here?
A: Its GI50 is inactive: 36.2 µM.

Q: `Cn1c(=O)c2[nH]c(-n3nc(-c4ccccc4)cc3N)nc2n(C)c1=O` was tested. Which GI50 did it give?
A: The GI50 was inactive: 4.93 µM.

Q: Which GI50 does the source give for `CC1=C(C#N)C2C(=C(N)Oc3ccccc32)C(N)=N1` (centres undefined) here?
A: Its GI50 is inactive: 19 µM.

Q: Which GI50 does the source give for `CN1Cc2ccccc2/C=C\c2ccccc21` here?
A: Its GI50 is inactive: > 100 µM.

Q: Which GI50 does the source give for `O=S1(=O)c2ccccc2N(O)C2=NCCN21` here?
A: Its GI50 is inactive: > 100 µM.

Q: How did the GI50 turn out when `C1=C2C3=[N+](CCCC3)CC2Cc2sccc21` (centres undefined) was run?
A: The GI50 was inactive: > 100 µM.

Q: For `CCCC(O)c1ccc2[nH]c3c(C)cc([N+](=O)[O-])c(C)c3c2c1` (centres undefined), which GI50 is on record?
A: Its GI50 is inactive: > 100 µM.

Q: For `CC(=O)Nc1ccc2c3c(cc(O)c2c1)N(C(=O)CCCCCCC(=O)N1CC(CCl)c2c1cc(O)c1cc(NC(C)=O)ccc21)CC3CCl` (centres undefined), which GI50 is on record?
A: The GI50 was active: 0.0396 µM.

Q: For `CC(C)(C)OC(=O)N/C(C=O)=C\C1CCCCC1`, which GI50 is on record?
A: The GI50 was inactive: 23.8 µM.

Q: With `Cn1c(=S)sc2nc3ccccc3n2c1=S` as the molecule, how does the GI50 read?
A: The GI50 was inactive: 13.6 µM.

Q: How did the GI50 turn out when `CCCCN(CC)C(=O)C(=O)C1C(=O)Nc2ccccc2[S+]1[O-]` (centres undefined) was run?
A: Its GI50 is inactive: > 100 µM.

Q: For `CCOC(=O)C1=CN(C(=O)c2ccccc2)CCC1Cc1ccccc1` (centres undefined), which GI50 is on record?
A: Its GI50 is inactive: 43 µM.

Q: `CC(C)=CC(=O)C/C(=N\NC(N)=S)C(=O)Nc1ccc(Cl)cc1` was tested. Which GI50 did it give?
A: The GI50 was inactive: > 100 µM.

Q: `CC12CC3CC(C)(C1)CC(N=[N+]=[N-])(C3)C2` was tested. Which GI50 did it give?
A: Its GI50 is inactive: > 100 µM.

Q: With `COc1c(Cl)cc(NC(=S)C#N)cc1Cl` as the molecule, how does the GI50 read?
A: Its GI50 is inactive: 24 µM.

Q: Which GI50 does the source give for `O=[N+]([O-])c1ccc(/C=C\c2ccc3c(c2)OCO3)c([N+](=O)[O-])c1` here?
A: Its GI50 is inactive: 16.6 µM.

Q: Which GI50 does the source give for `O=C1C(Br)=CC2([N+](=O)[O-])CCNC3=C(C4=NCCc5c[nH]c(c54)C3=O)C2=C1Br` (centres undefined) here?
A: The GI50 was inactive: 1.16 µM.

Q: Which GI50 does the source give for `C[C@H](CCC(=O)NCCS(=O)(=O)O)[C@H]1CC[C@H]2[C@@H]3[C@H](O)C[C@@H]4C[C@H](O)CC[C@]4(C)[C@H]3CC[C@]12C` here?
A: The GI50 was inactive: > 100 µM.

Q: For `NC(=O)c1cccc([C@@H]2O[C@H](CO)[C@@H](O)[C@H]2O)c1`, which GI50 is on record?
A: The GI50 was inactive: 29 µM.

Q: How did the GI50 turn out when `c1ccc([B-]2(c3ccccc3)OCCc3cccc[n+]32)cc1` was run?
A: Its GI50 is inactive: 73.3 µM.

Q: With `COc1cc([C@H]2c3cc4c(cc3O[C@@]3(O)COC(=O)[C@@H]23)OCO4)cc(OC)c1OC` as the molecule, how does the GI50 read?
A: The GI50 was inactive: > 100 µM.

Q: `O=C(/C=C/c1ccc(O)c(O)c1)OC1C[C@@](O)(C(=O)O)C[C@@H](O)[C@H]1OC(=O)/C=C/c1ccc(O)c(O)c1` (some centres undefined) was tested. Which GI50 did it give?
A: Its GI50 is inactive: > 100 µM.

Q: Which GI50 does the source give for `COc1cc(O)c2c(=O)cc(C3(O)C=CC(=O)C=C3)oc2c1` here?
A: Its GI50 is inactive: 2.07 µM.

Q: How did the GI50 turn out when `O=C(/C=C/c1ccc(/C=C/C(=O)c2ccc(O)cc2)cc1)c1ccc(O)cc1` was run?
A: Its GI50 is inactive: > 100 µM.

Q: Which GI50 does the source give for `NS(=O)(=O)c1ccc(/N=N/c2nc3nc(O)nc(O)c3[nH]2)cc1` here?
A: Its GI50 is inactive: > 100 µM.

Q: Which GI50 does the source give for `CN(C)CCOC(=O)c1ccc(N)cc1` here?
A: Its GI50 is inactive: > 100 µM.
